Data on 29 molecules can be found in the supplement of paper PMC12632987.

In all, about 2,300 sequences were measured (“median log2 fold change of GCK-ALFA target abundance (FLAG IP / Myc IP barcode read proportion)”: median about 0.095, lowest 2% from about -0.47 on). This is one part of the list.

To fix the notation:
B1: LC3A_28_1065 (protein)
chain: NKIEEELEKALKEAREAAAAGEEVTVTLTIDKNSTEEDVEKVLETMEEIAEIAKDSPAVSIIVDVDNPNKEEVTKKIAEKGDELEKKYPNVTVLIALSEE
B2: LC3A_147_411 (protein)
chain: WRVTVDVDILTKNAEEEVIEYFKELVEELRAKGYEVELEIEVEKLPDGETYIKVKITVYAPTEEEAQAAADYILDKIDEMEEELKDKILGSLISVEIEKE
B3: LC3A_free_0_2115 (protein)
chain: KKSVVEVVVILDDKTSEEKAKEFYEELKKKAEELAKKYGWEVEVELSKVDGSWVITIRLTSESEDIDKALEVADELSKAAEEIAKKLGLDATIYESVYLE
B4: LC3A_3_1511 (protein)
chain: MEEFIEKVRELLKSFGASEEVIELSEKALKLLLERGYEKAAEKFFELLKEAKDLSNELLLEFAEEVLELLESTDLSEEEIIKEIEEIFKTTKNESEIEEL
B5: LC3A_28_807 (protein)
chain: SPVRENVERAREEARRQIERGEPVFVEITLPADATPEEIEYVAEAIREIAREAAEAGIESVDVVVDSANNQEAITAISETEDRLRAEGLPINVIIALDEP
B6: LC3A_17_536 (protein)
chain: MEELREELEEALEEAKKLVEQLKKYDPEAAKEFEKKLKEIEKLIEEGKLREAAEALEKLARELADRIDSLKWEDPVEQEVLLMEANGIELRAIGILLKLD
B7: LC3A_6_2058 (protein)
chain: KVVTVTVDILLKEEKLEEGKKLLKEKVEKIEKELKEKAKELGKKLLSVKIEEGEDGLHITVTFEAEYHPEMEKKMLELADELVEELEPVSEASMISYEVT
B8: LC3A_3_1647 (protein)
chain: PEEEVEETVELLREAGHSEETIEAFRETAEALLERGYEEALRVLIEETRELLDLPDEILLAMLEEVLRVIKEEDLSEEEVIEEIRRIARIARSEGEIIEL
B9: LC3A_28_948 (protein)
chain: MTIEEQVEKALKEAKEAKEKNEPVVITLKVGGGATQEDVDLVIETIKEIAELHKDIDGVSIIVDVDGGVPQEFVDRIADTLDEVEEKYPNINAILALDED
B10: LC3A_147_444 (protein)
chain: MIAELIVDILTDNSKEEVIKALKEVEEELKKKGYNVEVEIKVEKIDENTYYIEVTFTARGVSEEEAKKFLEEAIELLDKMEEKLKDKILGSIISGEIIEE
B11: LC3A_3_1454 (protein)
chain: MEELKKELLKILEENGFSEETKKAALELFKELEKKGYINAMKTLIEEMKKMKDVSSEIALDMFKELLEIVKTKDLSEEEIIKEIESLAAAAIAEQEIIEL
B12: LC3A_3_1675 (protein)
chain: LEEAVQRLEDAERAAGASEEEIARLREAVLRLAEVSSEKVTLHLIELLLEASDVPAEEKIETVEDIVATIEKENLSEEEQLELVESEVSAARKATEIEEL
B13: LC3A_3_1414 (protein)
chain: MEEELKAALEALKEAGHSEETLKALEELVKELLERGAEEEAKRVLELVLEAKDISSELLLEVLKEALRLLTEEKKSPEEVIKELERELRIARSEQEIIEL
B14: LC3A_3_1774 (protein)
chain: AEELIARARALLEAQGRSPETIAAAEAAIRALLERGFEEAARTFIALLEENADLPDEELLAMAREILHVVETQDLTEEEVIARIREEARLARLAHEMDSL
B15: LC3A_free_26_2158 (protein)
chain: EKFVDIAAIDEALDLLEKAKKLLEEQGGEAKELAELVKEAKKLVEKETLESLKKAAELLKEIKKLIEEKLKLPEEVKKELLKLAEEAKEKVEEVIEIMES
B16: LC3A_free_0_2098 (protein)
chain: TTVVVEVVAISEEKLPPEDVEKVLEELNELAERIEKEKGWETEVEHAEIDGRNVFTLTVRSEDATIDEGLEIADEIADRVEEIFEELGAEVTIYESVYEE
B17: LC3A_28_1158 (protein)
chain: SSIEKEIEEAKKKLEEAIAAGKDEVIVIKVDGTATQEDIEKLIKALEELAKLGEEHGVTSIIIDVDKDVKQEHIDKIAKAAEEIEKKYPKINIIIALSDE
B18: LC3A_3_1873 (protein)
chain: LEEELEETLAALRAAGASEETLELFRRNMELLRERGYEEAARTFIEEMRELLGAPAELLLDFAREVLELLENNDLSEEELIKEIREIARLTRNEAEIEEL
B19: LC3A_74_2075 (protein)
chain: KLTPEESETILEGLAIAELARIKAEEDPSRREELLKAAEELRELAKEIIKKAGLDEELYESGGEVLALLLDDKEKLSVEEVLKRLKEKIEELKKILKKLE
B20: LC3A_132_261 (protein)
chain: MEELKEEALKELKELLDKIVEALQNGEDPWPLIKQLEEEAEKYAEKLSLEETEELVEESEEYAEKLFEEKLDPNDEEARRALDIIEMLLEGVLIEKELKE
B21: LC3A_23_633 (protein)
chain: MYRLEITIDLVGEKEKVEKAVEELIKHIKEVAKEKGATIKKLEVEIIEENDENGKTTFATINVVLEAETKEKLQAVADAITDKVEELGVSAIISVEITKL
B22: LC3A_28_1226 (protein)
chain: SHIEEEIEKAEKEAEEAKERGEEALIEVEITGEDTLEDVEYLMEKLEEIVEKYKDLPAISIVINLSGDVTQEQIDAAAEGGERIEEKFPNVTVIIALDEE
B23: LC3A_28_1082 (protein)
chain: SAVDAQIAAALAALRAAKAAGEEALLTLTLTEDATQEDVDRLIAGLEEIAELARDAARVTVVIDLDGKIPQEHIDRIADAAERIEERVPNVTVIIALDEE
B24: LC3A_28_1069 (protein)
chain: SHIDEQLEKALEEARKAKERGEEALITLTIDENSTEEDVEKVLETMREIAEITKDLPSTTIIVDVNNKNQEEVTQKISETGDELEKEYPHLNVIIALSEE
B25: LC3A_102_145 (protein)
chain: DQLEQLEKLRKKAEEEAKKIAKKIEKEDPERAKEILEILLTAIDALFTNARTQITHGFEDIEADAIFLDALDKLKKLGDKEGVKLLEKTKKEADELVKKA
B26: LC3A_45_1984 (protein)
chain: MYLATIDLLVPRELAEEALELTKEEAEELQEELGDELEVDFETLERSYEETKDEEDVYLRLNITHPDKDVALDAADEIVDDLEEALGGRVAAIISVKEVP
B27: LC3A_3_1693 (protein)
chain: MDELVKETLEVAKENGWSEEALEALKKLLDALKARGYEEAIKTLLEKLKELKDASSEDIKDMFLELLHLLETENLNEEEITEAIKEEARVLKSAKEIEEL
B28: LC3A_3_1588 (protein)
chain: SAELVEAQLERLRAAGLSPEVLAAARRVLEALAARGFEEAIKVLTEELLRLRDVDPAVLLAMLDDILHAVETEDLDEEEIIKLIKEEARVARLEAEIEEL
B29: LC3A_3_1832 (protein)
chain: LEEEREETIELLKEAGHSEETIEAFRETLELLLERGYEEAAKTLLELVREAVHLPSELLLEALKEVKEAILENDWSEEELTEKIKEIFNLYRNEYEIEEL

For the experiment, the target named is MAP1LC3A, Q9H492. Kind of experiment: median log2 fold change of GCK-ALFA target abundance (FLAG IP / Myc IP barcode read proportion) (log2 ratio); each designed protein is fused to an ALFA-tag nanobody in HEK293 cells to bring the named protein to FLAG-tagged glucokinase (GCK); Myc marks an untargeted standard; higher = target protein stabilised (more abundant). The conditions noted are these: target protein: 3xFLAG-MCP-GCK-ALFA reporter; HEK293 landing pad (RPLP). In a few lines:
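HEK293 landing-pad cells received a recombined binder library fused to the ALFA nanobody and were induced with 2 μg mL^−1 doxycycline, then transfected with a plasmid encoding a FLAG-tagged target and a Myc-tagged standard. Lysates were collected after 48 h for anti-FLAG and anti-Myc immunoprecipitation, and the circular RNA barcodes were reverse transcribed, amplified and sequenced. Target abundance for each binder is the median log2 ratio of FLAG to Myc barcode read proportions. Barcodes had to reach a proportion of at least 10^−7 in both replicates, each binder needed at least 3 barcodes per replicate, a pseudocount of 10^−6 was applied, and the two replicates were pooled.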
As to B1, the “median log2 fold change” value was determined as 0.281.

B2: the “median log2 fold change” value is -0.213.

B3: the “median log2 fold change” value is -0.145.

Regarding B4, the “median log2 fold change” value turned out to be 0.128.

As for B5, the “median log2 fold change” value is -0.0721.

For the molecule B6, the “median log2 fold change” value was determined as 0.194.

Regarding B7, the “median log2 fold change” value came to 0.0685.

In the case of B8, the “median log2 fold change” value worked out at 0.138.

As for B9, the “median log2 fold change” value came to 0.198.

As for B10, the “median log2 fold change” value is -0.427.

As for B11, the “median log2 fold change” value stood at 0.232.

As to B12, the “median log2 fold change” value amounted to 0.262.

Take B13: the “median log2 fold change” value amounted to 0.315.

With B14, the “median log2 fold change” value turned out to be 0.242.

Regarding B15, the “median log2 fold change” value stood at 0.0848.

In the case of B16, the “median log2 fold change” value turned out to be 0.28.

Consider B17, for which the “median log2 fold change” value came out at 0.187.

On to B18, for which the “median log2 fold change” value worked out at 0.235.

Regarding B19, the “median log2 fold change” value was -0.0499.

As to B20, the “median log2 fold change” value was -0.311.

As to B21, the “median log2 fold change” value was -0.00566.

For B22, the “median log2 fold change” value worked out at 0.0349.

As to B23, the “median log2 fold change” value was found to be 0.081.

For the molecule B24, the “median log2 fold change” value is -0.322.

Consider B25, for which the “median log2 fold change” value amounted to 0.167.

Regarding B26, the “median log2 fold change” value was -0.416.

For B27, the “median log2 fold change” value stood at 0.378.

As to B28, the “median log2 fold change” value was found to be 0.115.

Take B29: the “median log2 fold change” value is 0.178.
